Legend:
TROP-2 = test: Antibody endocytosis assay (DT3C cell killing); assay type: cell-based; conditions: antibody-DT3C mixture, three days, CTG
hTROP-2 = molecular target: T1, hTROP-2 (Homo sapiens, UniProt P09758); test: Antibody protein level binding assay (ELISA); conditions: absorbance at 450 nm
T1 sequence (P09758 27-274): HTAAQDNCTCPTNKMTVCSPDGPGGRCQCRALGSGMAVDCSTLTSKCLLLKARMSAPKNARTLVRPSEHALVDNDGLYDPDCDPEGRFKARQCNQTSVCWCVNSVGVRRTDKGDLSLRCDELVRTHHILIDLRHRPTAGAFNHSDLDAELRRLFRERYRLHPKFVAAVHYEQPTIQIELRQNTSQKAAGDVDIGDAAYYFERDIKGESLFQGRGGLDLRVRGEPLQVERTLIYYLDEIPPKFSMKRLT
Procedure: hTROP-2 protein was diluted to 1 μg/mL with PBS buffer at pH 7.4 (Shanghai BasalMedia Technologies Co., LTD., B320), added into a 96-well microplate at 100 μL per well, and incubated at 4° C. overnight. After the liquid was discarded, 300 μL of 5% skim milk (BD, 232100) diluted with PBS was added into each well for blocking and incubated at 37° C. for 2 h. After the blocking was completed, the blocking solution was discarded; after the plate was washed 3 times with PBST buffer (pH 7.4, PBS containing 0.1% tween-20), 100 μL of a gradient diluted antibody solution was added into each well and incubated at 37° C. for 1 h. After the incubation was completed, the plate was washed 3 times with PBST buffer, and 100 μL of 1:8000 diluted mouse anti-human IgG (H+L) (Jackson ImmunoResearch, 209-035-088) was added into each well and incubated at 37° C. for 1 h. After the plate was washed 3 times with PBST buffer, 100 μL of TMB chromogenic substrate (KPL, 5120-0077) was added into each well and incubated at room temperature for 10-15 min, and the reaction was terminated by adding 50 μL of 1 M H2504 into each well. The plate was detected for the absorbance at 450 nm using a microplate reader, the binding curves of antibodies to antigen were fitted with software, and the EC50 value was calculated.

HCC827 = test: Cell activity assay of ADC molecules, HCC827; assay type: cell-based; conditions: Table 6-2; second parallel comparison assay
Text: (§1) The cells used in this assay were as follows: FaDu (+++) purchased from ATCC, Cat. #HTB-43™; HCC827(+++), purchased from ATCC, Cat. #CRL-2868; Colo205(++), purchased from Cell Bank, Chinese Academy of Sciences, Cat. #TCHu102; DMS53 (++), purchased from ATCC, Cat. #CRL-2062™; SK-OV-3(+), purchased from ATCC, Cat. #HTB-77; CHO-K1(−), purchased from ATCC, Cat. #CCL-61™; wherein “+” represents the expression amount of TROP-2 in the cell population, more “+” means that the expression amount of TROP-2 is higher, and “−” means that TROP-2 is not expressed.
(§2) Cell suspensions were prepared with fresh cell medium containing 10% FBS at a density of 3703 cells/mL, and added into the 96-well cell culture plate at 135 μL/well and incubated with 5% carbon dioxide at 37° C. for 16 h. ADC samples were formulated at 5 μM with PBS. The 5 μM of initial concentration was diluted five times with PBS for a total of 8 concentrations. 15 μL of the above ADC solution was added into each well. […] 70 μL of CTG was added into each well and incubated for 10 min at room temperature in dark, the chemiluminescence values were detected using Victor3, and data analysis was performed using the GraphPad Prism software.

DMS53 = test: Cell activity assay of ADC molecules, DMS53; assay type: cell-based; conditions: Table 6-2; second parallel comparison assay
Text: as §1, §2

FaDu = test: Cell activity assay of ADC molecules, FaDu; assay type: cell-based; conditions: Table 6-2; second parallel comparison assay
Text: as §1, §2

Colo205 = test: Cell activity assay of ADC molecules, Colo205; assay type: cell-based; conditions: Table 6-2; second parallel comparison assay
Text: as §1, §2

CHO-K1 = test: Cell activity assay of ADC molecules, CHO-K1; assay type: cell-based, Chinese hamster; conditions: Table 6-1; CHO-K1 (TROP-2 not expressed), 6 days, CTG
Text: as §1, §2

SKOV3 xenograft tumors = test: In vivo efficacy, SKOV3 cell CDX mouse model; parameters: species or system Balb/c nude mice; conditions: 2 injections; for Mean tumor volume (mm^3) D21 / Tumor inhibition rate TGI (%): D21
Procedure: SKOV3 cells (5×10^6) were subcutaneously inoculated in the right flank of Balb/c nude mice, after 23 days of inoculation, the nude mice with heavy weight, too big tumor and too small tumor were removed after the tumor volume was about 180 mm^3, and the remaining mice were randomized into 5 groups of 8 mice according to tumor volume.
Each mouse was intraperitoneally injected with an ADC at 0.1 mL/10 g body weight for a total of 2 injections, and the dose is shown in following table. The tumor volumes and body weights were measured twice a week and the results were recorded. Data were recorded using Excel statistical software: the mean values were calculated as avg; the SD values were calculated as STDEV; the SEM values were calculated as STDEV/SQRT (number of animals per group); GraphPad Prism software was used for plot, and statistical analysis of the data was performed using Two-way ANOVA or One-way ANOVA.
(§3) Tumor volume (V) was calculated as: V=½×Llong×Lshort^2
Relative tumor proliferation rate T/C(%)=(T−T0)/(C−C0)×100, wherein T and C are the tumor volumes of animals at the end of the experiment in the treatment group and control group, respectively; T0 and C0 are the tumor volumes of animals at the beginning of the experiment in the treatment group and control group, respectively.

Colo205 xenograft tumors = test: In vivo efficacy, Colo205 cell CDX mouse model; parameters: species or system Balb/c nude mice; conditions: 10 mg/kg i.p. at day 0 and day 10
Procedure: Colo205 cells (5×10^6) were subcutaneously inoculated in the right flank of Balb/c nude mice, after 10 days of inoculation, the nude mice with heavy weight, too big tumor and too small tumor were removed after the tumor volume was about 245 mm^3, and the remaining mice were randomized into 6 groups of 8 mice according to tumor volume.
Each mouse was intraperitoneally injected with an ADC at 0.1 mL/10 g body weight at day 0 (DO) and day 10, making a total of 2 injections with a dose of 10 mg/kg. The tumor volumes and body weights were measured twice a week and the results were recorded for 28 days (D28).
(§4) Data were recorded using Excel statistical software: the mean values were calculated as avg; the SD values were calculated as STDEV; the SEM values were calculated as STDEV/SQRT (number of animals per group); GraphPad Prism software was used for plot, and statistical analysis of the data was performed using Two-way ANOVA or One-way ANOVA.
as §3
(§5) Relative tumor proliferation rate T/C(%)=(T−T0)/(C−C0)×100, wherein T and C are the tumor volumes of animals at the end of the experiment in the treatment group and control group, respectively; To and Co are the tumor volumes of animals at the beginning of the experiment in the treatment group and control group, respectively.

FaDu xenograft tumors = test: In vivo efficacy, Fadu cell CDX mouse model; parameters: species or system Balb/c nude mice; conditions: 1 mg/kg i.p. at days 0 and 8
Procedure: Fadu cells (3×10^6) were subcutaneously inoculated in the right flank of Balb/c nude mice, after 10 days of inoculation, the nude mice with heavy weight, too big tumor and too small tumor were removed after the tumor volume was about 245 mm^3, and the remaining mice were randomized into 5 groups of 8 mice according to tumor volume.
Each mouse was intraperitoneally injected with an ADC at 0.1 mL/10 g body weight at days 0 and 8, making a total of 2 injections with a dose of 1 mg/kg. The tumor volumes and body weights were measured twice a week and the results were recorded for 21 days.
as §4, §3, §5

B1: TINA: anti-TROP-2 antibody, heavy chain SEQ ID NO: 17, light chain SEQ ID NO: 18, constructed with reference to WO2015098099a1 (antibody)
heavy: QVQLVQSGAEVKKPGASVKVSCKASGYTFTTAGMQWVRQAPGQGLEWMGWINTHSGVPKYAEDFKGRVTISADTSTSTAYLQLSSLKSEDTAVYYCARSGFGSSYWYFDVWGQGTLVTVSS[human IgG1 constant region not printed]
light: DIQMTQSPSSLSASVGDRVTITCKASQDVSTAVAWYQQKPGKAPKLLIYSASYRYTGVPSRFSGSGSGTDFTLTISSLQPEDFAVYYCQQHYITPLTFGQGTKLEIKRTVAAPSVFIFPPSDEQLKSGTASVVCLLNNFYPREAKVQWKVDNALQSGNSQESVTEQDSKDSTYSLSSTLTLSKADYEKHKVYACEVTHQGLSSPVTKSFNRGEC
modifications: Heavy chain of TINA; Light chain of TINA
EC50 (TROP-2): 0.18 nM
Emax (TROP-2): 98.7%
Emax (OD value) (hTROP-2): 1.39 OD value

B2: ADC-5: antibody PD3 conjugated with compound 58 (Example 58 of CN104755494A) (conjugate)
heavy: EVQLVQSGSELKKPGASVKVSCKASGYTFTNYGMNWVKQAPGQGLKWMGWINTYTGEPTYTQDFKGRFAFSLDTSVSTAYLQISSLKAEDTAVYYCARGGFGSSYWYFDVWGQGTLVTVSS[human IgG1 constant region not printed]
light: DIQLTQSPSSLSASVGDRVSITCKASQDVSIAVAWYQQKPGKAPKLLIYSASYRYTGVPDRFSGSGSGTDFTLTISSLQPEDFAVYYCQQHYITPLTFGAGTKVEIKRTVAAPSVFIFPPSDEQLKSGTASVVCLLNNFYPREAKVQWKVDNALQSGNSQESVTEQDSKDSTYSLSSTLTLSKADYEKHKVYACEVTHQGLSSPVTKSFNRGEC
HCC827 Emax (%) (HCC827): 88.23%
DMS53 Emax (%) (DMS53): 92.47%
FaDu Emax (%) (FaDu): 101.58%
Colo205 Emax (%) (Colo205): 99.64%

B3: ADC-4: antibody TINA conjugated with compound 58; made with reference to Example 19 in WO2015098099 (conjugate)
heavy: QVQLVQSGAEVKKPGASVKVSCKASGYTFTTAGMQWVRQAPGQGLEWMGWINTHSGVPKYAEDFKGRVTISADTSTSTAYLQLSSLKSEDTAVYYCARSGFGSSYWYFDVWGQGTLVTVSS[human IgG1 constant region not printed]
light: DIQMTQSPSSLSASVGDRVTITCKASQDVSTAVAWYQQKPGKAPKLLIYSASYRYTGVPSRFSGSGSGTDFTLTISSLQPEDFAVYYCQQHYITPLTFGQGTKLEIKRTVAAPSVFIFPPSDEQLKSGTASVVCLLNNFYPREAKVQWKVDNALQSGNSQESVTEQDSKDSTYSLSSTLTLSKADYEKHKVYACEVTHQGLSSPVTKSFNRGEC
CHO-K1 Emax (%) (CHO-K1): 1.71%
Mean tumor volume (mm^3) D0 (SKOV3 xenograft tumors; 1 mg/kg i.p.): 185.17 mm^3
Mean tumor volume (mm^3) D21 (SKOV3 xenograft tumors; 1 mg/kg i.p.): 1110.52 mm^3
Tumor inhibition rate TGI (%) (SKOV3 xenograft tumors; 1 mg/kg i.p.): −3%
Mean tumor volume (mm^3) D0 (SKOV3 xenograft tumors; 3 mg/kg i.p.): 184.17 mm^3
Mean tumor volume (mm^3) D21 (SKOV3 xenograft tumors; 3 mg/kg i.p.): 873.38 mm^3
Tumor inhibition rate TGI (%) (SKOV3 xenograft tumors; 3 mg/kg i.p.): 23%
Mean tumor volume (mm^3) D0 (SKOV3 xenograft tumors; 10 mg/kg i.p.): 183.83 mm^3
Mean tumor volume (mm^3) D21 (SKOV3 xenograft tumors; 10 mg/kg i.p.): 938.99 mm^3
Tumor inhibition rate TGI (%) (SKOV3 xenograft tumors; 10 mg/kg i.p.): 16%
Mean tumor volume (mm^3) D0 (Colo205 xenograft tumors; D0): 201.52 mm^3
Mean tumor volume (mm^3) D28 (Colo205 xenograft tumors; D28): 513.83 mm^3
Tumor inhibition rate TGI (%) (Colo205 xenograft tumors; D28): 73%
Mean tumor volume (mm^3) D0 (FaDu xenograft tumors; D0): 244.41 mm^3
Mean tumor volume (mm^3) D21 (FaDu xenograft tumors; D21): 1180.96 mm^3
Tumor inhibition rate TGI (%) (FaDu xenograft tumors; D21): 53%
